According to paper PMC12040169 (PLOS Biology, 2025):
The other results are listed elsewhere or left out.

Each molecule was assayed on T1, C. trachomatis L2/434/Bu expressing GFP (CTL2-GFP). Details: total inclusion area; 28.5 h, 10 µM; inhibitor.
T1 construct: L2/434/Bu GFP intracellular growth in HeLa cells
Parameters: species or system HeLa; C. trachomatis total inclusion area by high-content imaging, normalised to DMSO
Outline: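 Following bulk GFP and resorufin fluorescence reads, infected cells were fixed, Hoechst-stained and imaged on a high-content platform. Inclusion total area and number per well served as growth proxies; nuclei counts indicated host viability. MICs were derived as for the fluorescence assay.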
For `Cc1csc(CCNCc2c(C(C)C)nn(C)c2N(C)C)n1` [CBK304140], the “% of control remaining” value was 103.866.
For `N#Cc1nc(-c2ccccc2)oc1NCCN1CCCCC1` [CBK264573], the “% of control remaining” value was 101.55.
`CC(CC(=O)N1CCOC(c2nc(C(C)(C)C)n[nH]2)C1)n1cccc1` (stereo not shown) [CBK305214] was tested, and the “% of control remaining” value was 47.9312.
`COC(=O)[C@H]1CN(C(=O)C2CC(=O)N(C)C2)C[C@@H]1c1ccccc1F` (stereo partly shown) [CBK285470] was tested, and the “% of control remaining” value was 76.0564.
For `CCOC(=O)C1CCCN(Cc2cc(F)cc(C(C)=O)c2O)C1` (stereo not shown) [CBK304020], the “% of control remaining” value was 87.7087.
With `O=C(NO)c1nc[nH]c1C(=O)NO` [CBK262077] the “% of control remaining” value was 101.127.
For `Cc1ccc(Oc2nnnn2-c2ccccc2)c(Br)c1` [CBK002827], the “% of control remaining” value was 119.713.
In the case of `CCOC(=O)N1CCC(NC(=O)N(CCC#N)C2CCCCC2)CC1` [CBK156384], the “% of control remaining” value is reported as 88.8832.
In the case of `c1ccc(-c2nccnc2NCC2CC2)cc1` [CBK088539], the “% of control remaining” value is reported as 96.3848.
`C=CCNC(=O)C1C2CCC3(CC(=O)c4cc(Cl)ccc4O3)C21` (stereo not shown) [CBK284873] was tested, and the “% of control remaining” value was 98.3881.
For `CCOC(=O)C1CCCN(S(=O)(=O)c2cc(C)c(Cl)cc2C)C1` (stereo not shown) [CBK044846], the “% of control remaining” value was 56.6941.
`O=[N+]([O-])c1cc2c(cc1C(Nc1ccccn1)c1cc(Cl)c3cccnc3c1O)OCO2` (stereo not shown) [CBK267795] was tested, and the “% of control remaining” value was 44.2611.
`CCOC(=O)C1=c2s/c(=C\c3cccnc3)c(=O)n2C(N)=C(C#N)C1c1cccnc1` (stereo not shown) [CBK262549] was tested, and the “% of control remaining” value was 89.4459.
`O=C(Cc1c[nH]c2ccccc12)N1CCC2(CCCN(C(=O)c3ccc(OC(F)(F)F)cc3)C2)C1` (stereo not shown) [CBK131579] was tested, and the “% of control remaining” value was 96.682.
For `c1ccc(-c2nnc3sc(-c4ccccn4)nn23)cc1` [CBK267344], the “% of control remaining” value was 112.533.
For `Brc1ccc(-c2nnco2)cc1` [CBK026512], the “% of control remaining” value was 64.7989.
`Cc1ccc(CN(CCCn2ccnc2)Cc2cnn(C)c2)s1` [CBK283113] was tested, and the “% of control remaining” value was 75.7367.
For `O=C(COc1ccc(S(=O)(=O)N2CCCCC2)cc1)Nc1ccc2c(c1)OCCO2` [CBK268205], the “% of control remaining” value was 85.0091.
For `c1ccc2c(c1)nc(N1CCNCC1)n1cnnc21` [CBK270145], the “% of control remaining” value was 87.0439.
With `COc1ccc([C@@]23CCC(N)C[C@@H]2N(C)CC3)c(F)c1OC` (stereo partly shown) [CBK067416] the “% of control remaining” value was 16.0212.
In the case of `CCN(CC)C(=O)CCc1nc2sc3c(c2c(=O)[nH]1)CCCC3` [CBK305069], the “% of control remaining” value is reported as 61.154.
`CC(=O)Nc1ccc(-c2nc[nH]c2Br)cc1` [CBK019063] was tested, and the “% of control remaining” value was 72.8993.
`CC(C)c1nccn1CCCn1cncc1-c1cnn(C)c1` [CBK281812] was tested, and the “% of control remaining” value was 89.5802.
In the case of `CCn1c(C(C)NC2CCN(CC(=O)OC)CC2)nc2ccccc21` (stereo not shown) [CBK305396], the “% of control remaining” value is reported as 86.7016.
In the case of `CC(=O)NCC(CN1CCOCC1)([N+](=O)[O-])[N+](=O)[O-]` [CBK261337], the “% of control remaining” value is reported as 104.435.
For `NC1=C(c2nc3ccccc3s2)C(=O)CN1CCCN1CCOCC1` [CBK265925], the “% of control remaining” value was 158.398.
For `CN(Cc1nc2ccccc2c(=O)[nH]1)Cc1cc2c(cc1Br)OCCO2` [CBK296715], the “% of control remaining” value was 91.4744.
With `c1cncc(-c2nccnc2NCCCN2CCOCC2)c1` [CBK037286] the “% of control remaining” value was 96.9583.
In the case of `CCC(=O)N1CCC2(C/C=C/CC(=O)Nc3cccc(n3)C3CN(CCO3)C(=O)CN(C)C2=O)CC1` (stereo not shown) [CBK292004], the “% of control remaining” value is reported as 101.365.
For `O=C(CN(c1ccccc1)S(=O)(=O)c1ccccc1)N1CCN(Cc2ccc3c(c2)OCO3)CC1` [CBK265290], the “% of control remaining” value was 101.301.
With `COc1ccccc1-c1nccnc1N1CCCC1CO` (stereo not shown) [CBK036735] the “% of control remaining” value was 104.882.
With `Cc1ccc(-c2noc(CN3CCN(c4ccccn4)CC3)n2)cc1` [CBK266457] the “% of control remaining” value was 104.863.
In the case of `FC(F)(F)c1ccc(OCCN2CCOCC2)nc1` [CBK113461], the “% of control remaining” value is reported as 58.7462.
`NC(C(=O)O)C(O)c1ccccc1[N+](=O)[O-]` (stereo not shown) [CBK262389] was tested, and the “% of control remaining” value was 103.597.
In the case of `CS(=O)(=O)c1ccccc1S(=O)(=O)N1CCN(c2nc3ccccc3s2)CC1` [CBK269468], the “% of control remaining” value is reported as 99.6376.
For `O=[N+]([O-])c1ccc(S(=O)(=O)N2CCN(S(=O)(=O)c3ccc(Cl)cc3)CC2)cc1` [CBK264312], the “% of control remaining” value was 104.402.
With `COC(=O)c1c(NC(=S)Nc2ccn(C)n2)sc2c1CCCCC2` [CBK266888] the “% of control remaining” value was 85.2135.
In the case of `Cn1cnc2cc(NCc3cc(-c4ccc(F)cc4)c[nH]c3=O)ccc21` [CBK284693], the “% of control remaining” value is reported as 88.1104.
`O=C(NCCN1CCCC1)c1cnc2cc(C(F)(F)F)ccc2c1O` [CBK107426] was tested, and the “% of control remaining” value was 75.3789.
In the case of `CN(C(=O)Cc1ccccc1)c1ccccc1` [CBK012581], the “% of control remaining” value is reported as 80.5663.
